The supplement of paper PMC10126150
Values marked as one replicate rest on one cluster of the flow cell; about a third of the high ones do not repeat.
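Note: ATP exposure 15 min at 22 °C before imaging.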

What follows are sequences tested on ATP (assay: switch fluorescence ratio, 500 uM ATP over buffer (Cy3 cluster intensity, sum of 5 cycles each) (fold (ratio)); higher = stronger signal-on switching upon ATP binding; sequences stand for … in TCGTCGGCAGCGTCAGATGTGTATAAGAGACAGTTTTTTTTTTTTTTTTTTTTTTTTT…TC). Details: aptamer strand: ATP DNA aptamer (quencher-CACCTGGGGGAGTATTGCGGAGGAAGG + anchor), 100 nM annealed; ATP concentration: 500 uM; one replicate.
Method in brief: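 Per cluster, summed Cy3 intensity from the target cycles was divided by that from the buffer cycles to give the fluorescence ratio, then averaged per switch-domain sequence. Clusters outside 100-1000 RFU were excluded. The Cy3-labelled switching-strand clusters, on a modified Illumina MiSeq flow-cell, were annealed to 100 nM quencher-labelled ATP aptamer and imaged in selection buffer, then after 15 min with 500 uM ATP at 22 °C, for five cycles with NaOH stripping and re-annealing between them.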
CCGGGGCAGA was tested, and the switch fluorescence ratio was 1.28. With CCGGGGTATG the switch fluorescence ratio was 1.06. In the case of CCGGGTGTCC, the switch fluorescence ratio was 1.5. In the case of CCGGGTTTCC, the switch fluorescence ratio was 0.971. CCGGTAACAG was tested, and the switch fluorescence ratio was 1.11. In the case of CCGGTACTT, the switch fluorescence ratio was 1.13. In the case of CCGGTAGTTA, the switch fluorescence ratio was 1.21. Sequence CCGGTCGTTG has a switch fluorescence ratio of 0.995. Sequence CCGGTTAGGT has a switch fluorescence ratio of 1.05. CCGGTTGGCC gave a switch fluorescence ratio of 0.997. CCGTAAAAGA gave a switch fluorescence ratio of 1.09. CCGTAAAGCC was tested, and the switch fluorescence ratio was 1.47. Work on CCGTAACC yielded a switch fluorescence ratio of 1.75. CCGTAAGAT gave a switch fluorescence ratio of 3.72. Work on CCGTACTATA yielded a switch fluorescence ratio of 1.36. Work on CCGTAGGTAT yielded a switch fluorescence ratio of 1.11. CCGTCAGATA was tested, and the switch fluorescence ratio was 1.27. In the case of CCGTCAGGCA, the switch fluorescence ratio was 1.03. Work on CCGTCGAGTG yielded a switch fluorescence ratio of 1.05. Work on CCGTCGGAG yielded a switch fluorescence ratio of 1.03. Work on CCGTCGGCGT yielded a switch fluorescence ratio of 1.04. CCGTCGGTCC gave a switch fluorescence ratio of 1.32. CCGTCGTCAA gave a switch fluorescence ratio of 4.49. In the case of CCGTCGTTTG, the switch fluorescence ratio was 1.03. CCGTGATCCC showed a switch fluorescence ratio of 2.69. CCGTGCCTTG showed a switch fluorescence ratio of 0.986. CCGTGGCCT gave a switch fluorescence ratio of 1.04. In the case of CCGTGGTGAC, the switch fluorescence ratio was 1.77. For CCGTTACCTT, the switch fluorescence ratio was 1.14. With CCGTTACGTC the switch fluorescence ratio was 1.06. For CCGTTAGACG, the switch fluorescence ratio was 1.09. CCGTTCTTA was tested, and the switch fluorescence ratio was 1.07. Sequence CCGTTCTTGG has a switch fluorescence ratio of 1. For CCGTTGAGTA, the switch fluorescence ratio was 1.02. CCGTTGCGCA showed a switch fluorescence ratio of 2.12. For CCGTTGCTAA, the switch fluorescence ratio was 3.55. With CCTAAATGGA the switch fluorescence ratio was 0.996. In the case of CCTAACACAG, the switch fluorescence ratio was 1.06. Work on CCTAAGGGGC yielded a switch fluorescence ratio of 1.09. Sequence CCTAAGTTAG has a switch fluorescence ratio of 1. In the case of CCTAATCGTC, the switch fluorescence ratio was 1.06. Work on CCTAATTCGT yielded a switch fluorescence ratio of 1.03. CCTACAATT gave a switch fluorescence ratio of 1.04. For CCTACCATTG, the switch fluorescence ratio was 1.24. CCTACCGAGT was tested, and the switch fluorescence ratio was 1.55. In the case of CCTACCGGA, the switch fluorescence ratio was 1.19. CCTACGACCG gave a switch fluorescence ratio of 1.25. CCTACGGTGC gave a switch fluorescence ratio of 3.03. With CCTACTTAAT the switch fluorescence ratio was 0.986. For CCTAGCGAAT, the switch fluorescence ratio was 1.7. In the case of CCTAGCTAGA, the switch fluorescence ratio was 1.09. With CCTAGGCGGG the switch fluorescence ratio was 0.989. CCTAGGTGCT showed a switch fluorescence ratio of 4.15. For CCTAGTCAGC, the switch fluorescence ratio was 1.19. CCTAGTGGCG showed a switch fluorescence ratio of 1.04. In the case of CCTAGTTGC, the switch fluorescence ratio was 1.04. For CCTATCAGCG, the switch fluorescence ratio was 1.13. With CCTATCTAAT the switch fluorescence ratio was 1. In the case of CCTATTTGAA, the switch fluorescence ratio was 0.991. Work on CCTCAGGTAC yielded a switch fluorescence ratio of 2.86. CCTCATATGA was tested, and the switch fluorescence ratio was 1.07. Sequence CCTCGGCCTG has a switch fluorescence ratio of 1.52. Work on CCTCGGGGT yielded a switch fluorescence ratio of 1.03. Sequence CCTCGTAACT has a switch fluorescence ratio of 2.43. CCTCGTAGGA gave a switch fluorescence ratio of 1.03. In the case of CCTCGTCTGT, the switch fluorescence ratio was 1.48. For CCTCGTGGTG, the switch fluorescence ratio was 1.37. In the case of CCTCGTTTGG, the switch fluorescence ratio was 1.09. For CCTCTAATTG, the switch fluorescence ratio was 1.33. CCTCTCCGGG showed a switch fluorescence ratio of 1.54. With CCTCTCCTCG the switch fluorescence ratio was 1.57. CCTCTCGGG showed a switch fluorescence ratio of 1.2. For CCTCTGAGCG, the switch fluorescence ratio was 1.06. For CCTCTGTAGA, the switch fluorescence ratio was 2.26. CCTCTGTAGT gave a switch fluorescence ratio of 3.9. In the case of CCTCTTCCTG, the switch fluorescence ratio was 1.11.
